Here are results for ten proteins from the supplement of paper PMC11876631.

Residue numbers refer to the chain shown, from its start. Names and notes keep the numbering of the source. ± gives the standard deviation of the averaged measurements. Laboratory Escherichia coli strains with one amino-acid change in an essential protein, pooled on minimal glucose agar with carbenicillin or gentamicin at twice the control MIC (plus kanamycin and chloramphenicol for the plasmids), 48 h. Fold change of barcode share against drug-free plates; higher = less susceptible. Active = above 20 in both replicates (the paper's putatively resistant). '<' = one read or none on drug, '>' = one read or none on a drug-free plate. Shares are relative, so most strains fall below 1 when a few take over. Listed are strains with at least 15 reads on both drug-free plates, and hits; most hits rest on fewer reference reads. Replicate rank correlation about 0.5. Edits are read from barcodes.

B1: cysI V221A (protein)
chain: MSEKHPGPLVVEGKLTDAERMKHESNYLRGTIAEDLNDGLTGGFKGDNFLLIRFHGMYQQDDRDIRAERAEQKLEPRHAMLLRCRLPGGVITTKQWQAIDKFAGENTIYGSIRLTNRQTFQFHGILKKNVKPVHQMLHSVGLDALATANDMNRNVLCTSNPYESQLHAEAYEWAKKISEHLLPRTRAYAEIWLDQEKVATTDEEPILGQTYLPRKFKTTVAIPPQNDIDLHANDMNFVAIAENGKLVGFNLLVGGGLSIEHGNKKTYARTASEFGYLPLEHTLAVAEAVVTTQRDWGNRTDRKNAKTKYTLERVGVETFKAEVERRAGIKFEPIRPYEFTGRGDRIGWVKGIDDNWHLTLFIENGRILDYPARPLKTGLLEIAKIHKGDFRITANQNLIIAGVPESEKAKIEKIAKESGLMNAVTPQRENSMACVSFPTCPLAMAEAERFLPSFIDNIDNLMAKHGVSDEHIVMRVTGCPNGCGRAMLAEVGLVGKAPGRYNLHLGGNRIGTRIPRMYKENITEPEILASLDELIGRWAKEREAGEGFGDFTVRAGIIRPVLDPARDLWD
B2: cysI I362W (protein)
chain: B1 chain with A221V, I362W
B3: cysI I399A (protein)
chain: B1 chain with A221V, I399A
B4: cysG I440A (protein)
chain: MDHLPIFCQLRDRDCLIVGGGDVAERKARLLLDAGARLTVNALAFIPQFTAWADAGMLTLVEGPFDESLLDTCWLAIAATDDDALNQRVSEAAEARRIFCNVVDAPKAASFIMPSIIDRSPLMVAVSSGGTSPVLARLLREKLESLLPLHLGQVAKYAGQLRGRVKQQFATMGERRRFWEKLFVNDRLAQSLANNDQKAITETTEQLINEPLDHRGEVVLVGAGPGDAGLLTLKGLQQIQQADVVVYDRLVSDDIMNLVRRDADRVFVGKRAGYHCVPQEEINQILLREAQKGKRVVRLKGGDPFIFGRGGEELETLCNAGIPFSVVPGITAASGCSAYSGIPLTHRDYAQSVRLITGHLKTGGELDWENLAAEKQTLVFYMGLNQAATIQQKLIEHGMPGEMPVAIVENGTAVTQRVIDGTLTQLGELAQQMNSPSLIAIGRVVGLRDKLNWFSNH
B5: cysG V245A (protein)
chain: B4 chain with V245A, A440I
B6: cysG I440P (protein)
chain: B4 chain with A440P
B7: cysG I439Q (protein)
chain: B4 chain with I439Q, A440I
B8: cysG I440W (protein)
chain: B4 chain with A440W
B9: cysG I439W (protein)
chain: B4 chain with I439W, A440I
B10: cysG I439A (protein)
chain: B4 chain with I439A, A440I

The target of the first series is Escherichia coli (laboratory strain). The experiment in a line: barcode share on antibiotic plates over drug-free plates; higher = less susceptible. Conditions: antibiotic: carbenicillin; 2× MIC (3.1 µg/mL). Here is the method:
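A pool of E. coli strains, each edited to carry one amino-acid change in an essential protein, was grown for 48 h on minimal glucose agar with or without antibiotic; strain barcodes were sequenced; mean of two replicates.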
With B1, the “fold change of barcode share” value is 0.298 ± 0.14.
As to B2, the “fold change of barcode share” value worked out at 0.455 ± 0.035.
Same read-out and setting: then B3, with 0.956 ± 0.97; and B4, with 0.671 ± 0.13.
As for B5, the “fold change of barcode share” value stood at 0.463 ± 0.15.
B6: the “fold change of barcode share” value was > 29.7 [active].
On to B7, for which the “fold change of barcode share” value worked out at 0.521 ± 0.34.
Consider B8, for which the “fold change of barcode share” value is 1.16 ± 0.46.
The same measure, in the same setting: then B9, with 0.783 ± 0.31; and B10, with 0.402 ± 0.12.

The same series, now with this note: antibiotic: gentamicin; 2× MIC (MIC 0.45 µg/mL).
Turning to B1, the “fold change of barcode share” value was 0.028 ± 0.00081.
Regarding B4, the “fold change of barcode share” value was determined as 0.129 ± 0.16.
Take B5: the “fold change of barcode share” value is less than 0.00545.
Consider B7, for which the “fold change of barcode share” value worked out at 0.00932 ± 0.00094.
B9: the “fold change of barcode share” value worked out at 0.0188 ± 0.017.
Take B10: the “fold change of barcode share” value turned out to be 0.00934 ± 0.0056.
